# According to PubChem BioAssay AID1347417 (National Center for Advancing Translational Sciences (NCATS), 2020):
# About 5,300 (4.4%) of roughly 120,000 compounds were called active. This list was built around the results that the source calls inconclusive (neither active nor inactive); the mix of calls is not that of the screen. Calls come from the whole dose curve; as a rule, active = well fitted inhibition curve with a large enough effect; inconclusive = small, poorly fitted or top-dose-only effect; inactive = no such curve, though single readings can be large or run the other way. A potency beside an inconclusive call is a rough fit, not a confirmed value.
# Assay: qHTS Primary assay for Inhibitors of Plasmodium falciparum Dd2 growth in vitro; note: nearly all actives have a fitted effect of over 65% in size
# Settings: P. falciparum Dd2 growth, SYBR Green, 72 h; series mostly up to 28.9 µM
# In short: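 Infected erythrocytes (Dd2, 0.3% parasitemia, 2.5% hematocrit final) are added to compound in RPMI-1640/Albumax II medium, grown 72 h at 37C in low oxygen, then lysed with saponin/Triton-X containing SYBR Green and read by fluorescence.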
# Potency is the fitted concentration of half-maximal effect; tags give direction and shape of the fitted curve.
row,SMILES,Potency
1,CC(C)c1ccc(C(=O)CC2(O)C(=O)N(CCc3ccccc3)c3ccc(Cl)cc32)cc1 (stereo not given),"inconclusive: 10 µM [inhibitor, single point]"
2,Cc1nc(CN2C(=O)OC3(CCN(C(=O)c4scnc4C)CC3)C2(C)c2ccccc2)cs1 (stereo not given),inactive
3,COc1cc(Nc2nc(-c3ccccc3F)no2)cc(OC)c1OC,active: 12.6 µM
4,CC(C)Cc1cnc(C2CCCN(C(=O)c3ccc(Cl)cc3)C2)[nH]1 (stereo not given),"inconclusive: 6.31 µM [inhibitor, partial curve, poor fit]"
5,O=C(NC[C@H]1O[C@H](Cc2cc(CN3CCNCC3)on2)CC[C@@H]1O)c1ccccc1F,"inconclusive: 0.501 µM [inhibitor, full curve, poor fit]"
6,O=C(NCCn1cccc1-c1nc(-c2ccccc2)no1)c1cccc(Cl)c1,"inconclusive: 11.2 µM [inhibitor, single point]"
7,CN(Cc1ccncc1)Cc1ccc(-c2ccccc2)cc1,"inconclusive: 31.6 µM [inhibitor, single point]"
8,CCc1cccc(C)c1NC(=O)c1cc2ccccc2o1,"inconclusive: 17.8 µM [inhibitor, single point]"
9,CCCC(=O)N1Cc2ccccc2CC2(CCN(C)CC2)C1,"inconclusive: 8.91 µM [inhibitor, partial curve, poor fit]"
10,O=C1Nc2ccccc2CC12CCCN2Cc1ccc(Cl)cc1 (stereo not given),inactive
11,COc1ccc(C2Cn3nnc(-c4nc(C(C)C)no4)c3CO2)cc1 (stereo not given),inactive
12,Cc1cc(-c2cnc3[nH]cc(CC(N)=O)c3c2)ccn1,"inconclusive: 39.8 µM [inhibitor, single point]"
13,O=C1Nc2ccc(-c3ccsc3)cc2C(=O)N2CCN(C(=O)CO)C[C@H]12,inactive
14,COc1ccc(CCC(=O)N2CCCCCC2c2nnc(-c3ccccc3)o2)cc1 (stereo not given),inactive
15,O=S(=O)(Nc1ncc(CN2CC[C@H]3CNC[C@H]32)cn1)c1ccccc1,inactive
16,CCCC(=O)N1Cc2ccccc2CC2(CCCN(Cc3ccccn3)C2)C1 (stereo not given),"inconclusive: 11.2 µM [inhibitor, single point]"
17,CCc1ccc(NC(=O)CSC2=Nc3ccccc3C3=NC(CC(=O)NCc4cccs4)C(=O)N23)cc1 (stereo not given),"inconclusive: 17.8 µM [inhibitor, single point]"
18,O=C1CCN(Cc2ccc3c(c2)CCO3)CCCC(c2nc(-c3cccnc3)no2)CCN1 (stereo not given),"inconclusive: 1 µM [inhibitor, partial curve, poor fit]"
19,CCC(=O)N1CCc2cc(Br)cc(S(=O)(=O)N3CCC(C(=O)Nc4cccc(C)c4)CC3)c21,"inconclusive: 8.91 µM [inhibitor, single point]"
20,Cc1cc2c(cc3c(SCc4cccc(Cl)c4)nnc(C)n32)o1,"inconclusive: 10 µM [inhibitor, partial curve, poor fit]"
21,CS(=O)(=O)N1CCOc2ccc(CCC(=O)NCCc3ccccc3)cc2C1,"inconclusive: 17.8 µM [inhibitor, single point]"
22,Cc1noc(C)c1[S+](=O)([O-])N1CCC2(C1)C(=O)N(Cc1ccccc1)c1ccccc12 (stereo not given),inactive

row,SMILES,Potency
1,COc1cccc(C(=O)N2CCC(N3CCCCCC3=O)CC2)c1,inactive
2,COc1cccc(Nc2ccc3c(n2)C(C)(C(=O)NCc2ccco2)CN(C)C3)c1 (stereo not given),inactive
3,O=C(NCc1ccco1)C1CCCN(c2cnn(Cc3ccccc3)c(=O)c2)C1 (stereo not given),inactive
4,CCN1C(=O)C2(CCN(S(=O)(=O)c3ccc(OC)cc3)CC2)c2ccccc21,inactive
5,Cc1ccc(-c2nc(C(=O)NCc3ccco3)no2)cc1,inactive
6,CCCCc1ncc(CN2CCCC(C(=O)Nc3ccccc3-c3ccc(OC)cc3)C2)[nH]1 (stereo not given),active: 8.91 µM
7,COc1cc2c(cc1Oc1cccc(N(C)C)c1)NC(=O)C21CCN(C(C)=O)CC1,inactive
8,CC1=C[C@@H](CNC(=O)c2cncnc2)[C@H](C(C)C)C[C@H]1Cc1nnc(-c2ccncc2)o1,"inconclusive: 1.41 µM [inhibitor, partial curve, poor fit]"
9,COC(=O)C1=C(C)N=C2SC=C(CC(=O)Nc3ccc(C)cc3)N2C1c1cccc(OC)c1 (stereo not given),"inconclusive: 3.16 µM [inhibitor, single point]"
10,CCN(CC)C(=O)[C@@H]1CCCN1[C@H](Cc1ccccc1)C(=O)NC,"inconclusive: 0.355 µM [inhibitor, full curve, poor fit]"
11,CC#CC(=O)N1CCCC(N2CCN(c3cccc(Cl)c3)CC2)C1 (stereo not given),inactive
12,CCc1ccc(CNC(=O)c2cc3cc4ccc(OC)cc4nc3o2)cc1,"inconclusive: 1.12 µM [inhibitor, full curve, poor fit]"
13,COc1ccc(CC(=O)N2CCC(c3n[nH]c(=O)n3-c3ccccc3)CC2)cc1Cl,"inconclusive: 10 µM [inhibitor, single point]"
14,CS(=O)(=O)N(C1CC1)C1CCOC2(CCN(C(=O)c3ccc(F)cc3)CC2)C1 (stereo not given),inactive
15,Cc1ccc(-c2nc(CNC(=O)C(C)CN)[nH]c2-c2ccccn2)cc1 (stereo not given),"inconclusive: 12.6 µM [inhibitor, single point]"
16,CCCc1noc(-c2cccn3c(CNC(=O)c4ccc(C(C)(C)C)cc4)nnc23)n1,"inconclusive: 11.2 µM [inhibitor, single point]"
17,COc1ccc(CN2CCCCC23Cc2ccccc2CNC3=O)cc1 (stereo not given),"inconclusive: 11.2 µM [inhibitor, single point]"
18,O=C1NCc2ccccc2CC12CCCN(CC1=CCCCC1)C2 (stereo not given),"inconclusive: 0.631 µM [inhibitor, full curve, poor fit]"
19,NC(=O)CN1CCCC(c2nc(-c3ccc4nc[nH]c4c3)no2)C1 (stereo not given),"inconclusive: 20 µM [inhibitor, single point]"
20,CCC(=O)Nc1cccc(-c2nnc3n2CCCC3)c1,"inconclusive: 17.8 µM [inhibitor, single point]"
21,CC(=O)N1c2ccc(S(=O)(=O)NCC3CCC(C(=O)Nc4cccc(C)c4)CC3)cc2CC1C (stereo not given),"inconclusive: 17.8 µM [inhibitor, single point]"
22,COCC1CN(C2CCC2)CC12CCN(C(=O)Cc1cccc(OC)c1)CC2 (stereo not given),"inconclusive: 5.01 µM [inhibitor, partial curve, poor fit]"

row,SMILES,Potency
1,O=C(NCCCN1CCN(c2ccccc2F)CC1)c1sc2ncccc2c1-n1cccc1,"inconclusive: 11.2 µM [inhibitor, partial curve, poor fit]"
2,COC1CCN(CC2CCCCCN2C(=O)NCc2ccc(F)cc2)CC1 (stereo not given),inactive
3,Cc1cn2nc(C(=O)NC3CCC(C)CC3)cc2c(N2CCCC2)n1 (stereo not given),"inconclusive: 3.98 µM [inhibitor, single point]"
4,COc1ccc(Cl)cc1C(=O)NCC(c1ccc(N(C)C)cc1)N1CCCC1 (stereo not given),"inconclusive: 1.58 µM [inhibitor, partial curve, poor fit]"
5,O=[S+]1([O-])NCC2(CCCN(CC3CC3)C2)Nc2ccccc21 (stereo not given),"inconclusive: 2.24 µM [inhibitor, full curve, poor fit]"
6,Cc1ccc(C(=O)NC2CCCN(c3cc(-c4ccccc4)[nH]n3)C2)s1 (stereo not given),"inconclusive: 0.0708 µM [inhibitor, full curve, poor fit]"
7,O=C(N[C@@H]1CN[C@H](CO)C1)C1CC1,inactive
8,CCc1ccc(CNC(=O)C2CCN(C(=O)c3ccc(-n4c(C)cc5ccccc54)s3)CC2)cc1,"inconclusive: 17.8 µM [inhibitor, single point]"
9,COc1ccc(-n2c(=O)c3c4c(sc3n(CC(=O)C(C)(C)C)c2=O)CCCC4)c(OC)c1,"inconclusive: 17.8 µM [inhibitor, single point]"
10,CN(C(=O)CSc1nc2ccc(NC(=O)c3cccs3)cc2s1)c1ccccc1,"inconclusive: 11.2 µM [inhibitor, single point]"
11,O=C1CC(c2ccccc2)N(Cc2ccc(F)cc2F)CCCCCCN1 (stereo not given),"inconclusive: 0.112 µM [inhibitor, full curve]"
12,CCc1noc(-c2cccn3c(CNC(=O)c4cccc(C)c4)nnc23)n1,"inconclusive: 2.24 µM [inhibitor, partial curve]"
13,COC(=O)[C@H](Cc1ccc(OC)cc1)NC(=O)[C@@H]1CN(C(=O)c2cccc(F)c2)CCN1C(=O)C1CCNCC1,inactive
14,Cc1ccc2nc(/C(C#N)=C/c3ccc(-c4ccc(C(=O)OC(C)C)cc4)o3)[nH]c2c1,"inconclusive: 1.41 µM [inhibitor, partial curve, poor fit]"
15,CCOc1cc(C(=O)Nc2ccc(-c3nnc4n3CCCCC4)cc2)cc(OCC)c1OCC,"inconclusive: 8.91 µM [inhibitor, single point]"
16,Cc1nn(C)c(C)c1CCN(C)C(=O)C12CCCC=C1N(C1CCCC1)C(=O)CC2 (stereo not given),"inconclusive: 11.2 µM [inhibitor, partial curve, poor fit]"
17,O=C1N2CCCC2CN1C1CCN(Cc2ccccc2C(F)(F)F)CC1 (stereo not given),"inconclusive: 10 µM [inhibitor, single point]"
18,CCc1cccc(-n2nnnc2N2CCC(C(=O)Nc3ccc(C)c(F)c3)CC2)c1,"inconclusive: 12.6 µM [inhibitor, single point]"
19,COc1ccc(CCNc2nc(SCc3cccc(Cl)c3)nc3ccccc23)cc1OC,inactive
20,COc1cccc(-c2cc3c(=O)n(CCNC(=O)c4ccccc4Cl)ccn3n2)c1,"inconclusive: 2 µM [inhibitor, partial curve, poor fit]"
21,OC(c1cccc(C(F)(F)F)c1)c1nc(Nc2ccc3c(c2)OCO3)n[nH]1 (stereo not given),inactive
